These results are taken from the antibiotic and cytotoxicity screens of Wong et al. (2023).

The list shows a part of the results.

In the experiment the test system is HSkMC (human skeletal muscle cells). The experiment in a line: cytotoxicity call (relative viability < 0.9). Particulars: 10 µM.
Regarding `C[C@H]1CN([C@@H](C)CO)C(=O)c2cc(Br)cnc2O[C@@H]1CN(C)S(=O)(=O)c1ccccc1`, the cytotoxicity call is “inactive”.
Next, `Cc1noc(C)c1NC(=O)N(C)C[C@H]1Oc2ccc(NS(=O)(=O)c3cccs3)cc2CC(=O)N([C@@H](C)CO)C[C@@H]1C`: “inactive”; `CC/N=c1\nc(NCC)[nH]c(=S)[nH]1`: “inactive”.
`CNC[C@H]1Oc2ccc(NC(=O)CCN3CCOCC3)cc2CC(=O)N([C@H](C)CO)C[C@@H]1C`: the cytotoxicity call is “inactive”.
Next, `COC(=O)C[C@H]1CC[C@@H]2[C@H](COC[C@H](O)CN2S(=O)(=O)c2ccc(F)cc2)O1`: “inactive”; `C[C@H](CO)N1C[C@H](C)[C@H](CN(C)Cc2ccc(-c3ccccc3)cc2)Oc2ccc(NC(=O)Nc3ccc(C(F)(F)F)cc3)cc2C1=O`: “active”; `COCC(=O)N1C[C@@H](C)[C@H](OC)CN(C)C(=O)c2cc(NC(=O)c3ccc(OC)cc3)ccc2OC[C@@H]1C`: “inactive”.
On to `C[C@H]1CCCCO[C@@H](CN(C)C(=O)c2ccccc2)[C@@H](C)CN([C@@H](C)CO)C(=O)c2cc(NC(=O)Nc3ccc(C(F)(F)F)cc3)ccc2O1`, for which the cytotoxicity call is “inactive”.
Next, `O=C(C[C@@H]1C=C[C@@H](NS(=O)(=O)c2ccc(F)cc2)[C@@H](CO)O1)NCc1ccc(Cl)c(Cl)c1`: “inactive”; `C[C@H]1CN([C@@H](C)CO)C(=O)Cc2cc(NC(=O)CCN3CCOCC3)ccc2O[C@@H]1CN(C)S(=O)(=O)c1cn(C)cn1`: “inactive”; `CO[C@@H]1CN(C)C(=O)c2cc(NS(=O)(=O)c3cn(C)cn3)ccc2OC[C@H](C)N(CCC(F)(F)F)C[C@@H]1C`: “inactive”.
